Measured values taken from PubChem BioAssay AID504466 (National Center for Advancing Translational Sciences (NCATS), 2011).
In all, about 330,000 compounds went through this assay and about 4,200 (1.3%) were called active. This list was built around the results that the source calls inconclusive (neither active nor inactive); the mix of calls is not that of the screen. Calls follow the shape of the dose curve; as a rule, active = well fitted activation curve with a large enough effect; inconclusive = small, poorly fitted or top-dose-only effect; inactive = no such curve, though single readings can be large or run the other way. Potencies of inconclusive entries are doubtful fits and often do not repeat.

Test: qHTS screen for small molecules that induce genotoxicity in human embryonic kidney (HEK293T) cells expressing luciferase-tagged ELG1; also: nearly all actives have a fitted effect of over 60% in size
Conditions: HEK293T ELG1-luciferase reporter, luminescence, 16 h; series mostly up to 46 µM
Summary of the method: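 Reporter readout depends on ELG1 protein level, which increases with genetic stress. After 16 hr compound exposure at 37 °C, luciferase activity was quantified using ONE-Glo.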
Potency is read from the fitted curve at half-maximal effect; tags tell the direction and shape of the fitted curve.

Row | SMILES | Potency
1 | O=C(N/N=C/C=C\c1ccccc1[N+](=O)[O-])c1cc(-c2ccc3ccccc3c2)n[nH]1 | inconclusive: 14.6 µM [activator, partial curve, poor fit]
2 | CC(=O)N1CCc2c(sc3c2c(=O)n(Cc2ccccc2)c(=O)n3CC(=O)NCC2CCCO2)C1 (stereo unspecified) | inconclusive: 32.6 µM [activator, partial curve, poor fit]
3 | c1csc(CNc2ccc3c(c2)OCCO3)c1 | active: 8.2 µM
4 | O=C(Nc1ccccc1)Nc1ccc2ncoc2c1 | inconclusive: 8.2 µM [activator, partial curve, poor fit]
5 | c1ccc(-c2noc(-c3ccc4ccccc4c3)n2)nc1 | inconclusive: 0.0517 µM [activator, full curve, poor fit]
6 | CC(C)(C)OC(=O)N1Cc2ccccc2C[C@H]1C(=O)NCC(=O)Nc1ccc2c(c1)OCCO2 | inconclusive: 18.3 µM [activator, partial curve]
7 | CCSc1ccc(/C(N)=N/OC(=O)c2cccs2)cn1 | active: 13 µM
8 | COc1ccc(Cn2c3nc4ccccc4nc3c3c(=O)n(Cc4ccco4)c(C)nc32)cc1 | inconclusive: 32.6 µM [activator, partial curve, poor fit]
9 | CN=C1S/C(=C\c2ccc(N3CCOCC3)c(F)c2)C(=O)N1C | inconclusive: 20.6 µM [activator, partial curve]
10 | CCOc1ccc(N2C(=O)CC(N(O)c3ccccc3)C2=O)cc1 (stereo unspecified) | inconclusive: 16.4 µM [activator, partial curve]
11 | Cc1ccsc1C(=O)N(CC(C)C)c1c(N)n(Cc2ccccc2)c(=O)[nH]c1=O | inactive
12 | O=C(COc1ccc2c(-c3ccccc3)cc(=O)oc2c1)NCCCN1CCOCC1 | inconclusive: 29.1 µM [activator, partial curve, poor fit]
13 | Cc1occc1C(=O)Nc1cccc2ccccc12 | active: 5.8 µM
14 | Cc1nn(C)cc1S(=O)(=O)Nc1ccc2c(c1)OCCO2 | inconclusive: 18.3 µM [activator, partial curve]
15 | CCn1c(SCC(=O)NC(=O)c2ccccc2OC)nc2ccccc21 | inactive
16 | Cc1cc(OCc2cc(C(=O)N3CCCCCC3)no2)cc(C)c1Cl | inconclusive: 5.17 µM [activator, single point]
17 | O=C(Nc1ccc2c(c1)OCCO2)c1ccc(Cl)c(Cl)c1 | active: 2.59 µM
18 | O=C(/C=C/c1ccco1)Nc1cccnc1 | inconclusive: 13 µM [activator, partial curve, poor fit]
19 | Cc1cccc(S(=O)(=O)Nc2ccc(-c3nc4ccc(C)cc4s3)cc2)c1 | inconclusive: 6.51 µM [activator, partial curve]
20 | N#CCCSc1ccccc1NC(=O)c1ccc(S(=O)(=O)N2CCCC2)cc1 | inactive
21 | C(=N\Nc1ccccn1)/c1ccc(N2CCOCC2)cc1 | inconclusive: 6.51 µM [activator, partial curve]
22 | COc1ccc(C(=O)N=c2sc3ccccc3n2C)cc1OC | inconclusive: 10.3 µM [activator, partial curve]
23 | Cc1ccc2oc(-c3ccc(C)c(NC(=S)NC(=O)c4cccs4)c3)nc2c1 | active: 8.2 µM
24 | COc1cc(Cl)ccc1OCc1cc(C(=O)N(C)C2CCOC2)no1 (stereo unspecified) | inconclusive: 13 µM [activator, partial curve]

Row | SMILES | Potency
25 | Cc1ccc(NC(=O)C2CCC2)cc1S(=O)(=O)N1CCCCCC1 | inconclusive: 18.3 µM [activator, partial curve, poor fit]
26 | CC(C)c1ccc(/C=C2\CC/C(=C\C=N\N(C)C)C2=O)cc1 | active: 3.26 µM
27 | Cc1ccc(C(=O)NC2CCN(S(=O)(=O)c3ccc(F)cc3)CC2)cc1 | inconclusive: 20.6 µM [activator, partial curve, poor fit]
28 | CCOC(=O)c1cc(-c2ccc([N+](=O)[O-])cc2)nc2c1c(=O)[nH]c(=O)n2Cc1ccccc1 | inconclusive: 3.55 µM [activator, full curve]
29 | Cc1c(/C(O)=C2/C(=O)C(=O)N(Cc3cccnc3)C2c2cccs2)cnn1-c1ccccc1 (stereo unspecified) | inconclusive: 20.6 µM [activator, single point]
30 | Cc1ccccc1CCN(C(=O)Cn1nnc2ccccc21)C(C(=O)NC(C)(C)C)c1ccsc1 (stereo unspecified) | inconclusive: 20.6 µM [activator, partial curve, poor fit]
31 | CC(C)CCN1CC(O)=C(c2nc(-c3ccc(Cl)cc3)cs2)C1=N | inconclusive: 18.4 µM [activator, partial curve, poor fit]
32 | CC(=C/c1ccccc1)/C=N/NC(=O)c1cccs1 | active: 1.83 µM
33 | Cc1occc1C(=O)Nc1ccc2c(c1)OCCO2 | inconclusive: 8.2 µM [activator, partial curve]
34 | CN(C)c1ccc(/C=N/NC(=O)c2ccn(C)n2)cc1 | inconclusive: 9.2 µM [activator, partial curve]
35 | N#C/C(=C/C=C/c1ccccc1)C(=O)Nc1ccccc1 | inactive
36 | O=C(N/N=C/c1ccccn1)c1cc(-c2ccc3ccccc3c2)n[nH]1 | inactive
37 | CCN(CC(=O)Nc1ccc2c(c1)OCCO2)C(=O)c1ccc(Cl)cc1Cl | inconclusive: 3.26 µM [activator, partial curve, poor fit]
38 | CN1CCN(c2ccc(NC(=O)c3ccc(Cl)cc3Cl)cc2)CC1 | inconclusive: 20.6 µM [activator, single point]
39 | Cn1ccnc1SCC(=O)Nc1nc2ccccc2s1 | inconclusive: 23.1 µM [activator, partial curve]
40 | Cc1cc(Br)ccc1NC(=O)CN(C)C(=O)c1ccc2ccccc2n1 | inactive
41 | Cc1cc(OCC(=O)N2CCCC2)ccc1Cl | inconclusive: 8.2 µM [activator, partial curve, poor fit]
42 | CCOc1cc(/C=C2/NC(=O)N(CC(=O)OC)C2=O)ccc1O | inactive
43 | CN(C)/C=C/C(=O)c1ccncc1 | inactive
44 | COc1ccc(-c2cc(C(=O)N3CCOCC3)no2)cc1 | active: 0.411 µM
45 | Cc1ccc(C(=O)O/N=C(\N)c2ccccn2)cc1C | active: 0.326 µM
46 | O=C(Nc1ccc(N2CCOCC2)c(Cl)c1)c1ccc(Br)o1 | inconclusive: 1.84 µM [activator, partial curve]
47 | CCOc1cc(C(=O)NC(=S)Nc2cccnc2)cc(OCC)c1OCC | inactive
48 | COc1ccccc1OCCNC(=O)c1ccccc1C | inconclusive: 18.4 µM [activator, partial curve, poor fit]

Row | SMILES | Potency
49 | COc1ccc(-c2cn3c(n2)CCC3)cc1 | inconclusive: 9.2 µM [activator, partial curve, poor fit]
50 | CN(C)c1nc(Cl)cc(N2CCOCC2)n1 | inconclusive: 9.2 µM [activator, partial curve, poor fit]
51 | O=C(Nc1ccc(N2CCN(C(=O)c3ccco3)CC2)cc1)c1cccs1 | inactive
52 | CN(C)/C=N/C(=S)Nc1ccc(Cl)cc1 | inconclusive: 14.6 µM [activator, partial curve]
53 | CCN(CC)C(=O)c1sc(N2C(=O)Nc3ccccc3N2O)c(C(=O)OC)c1C | inactive
54 | CNC(=O)c1ccc(-c2ccc(OC)cc2)s1 | inconclusive: 8.2 µM [activator, partial curve]
55 | Cn1ccnc1SCC(=O)Nc1ccc(Oc2ccccc2)cc1 | inconclusive: 16.4 µM [activator, single point]
56 | CCOC(=O)c1c(C)oc2c1c(C(c1ccccc1)N1CCOCC1)c(O)c1ccccc12 (stereo unspecified) | inconclusive: 6.51 µM [activator, single point]
57 | COc1nc(C)ccc1-c1noc(-c2cccs2)n1 | inconclusive: 2.31 µM [activator, full curve]
58 | Nc1c(-c2ccccc2)cnn1-c1cccc([N+](=O)[O-])c1 | inconclusive: 20.6 µM [activator, partial curve, poor fit]
59 | CCCCc1nc2cc(C(=O)N3CCCC(OCCC)C3)ccc2o1 (stereo unspecified) | inconclusive: 14.6 µM [activator, partial curve, poor fit]
60 | CC(C)(CC(=O)O)CC(=O)Nc1cc(C(F)(F)F)cc(C(F)(F)F)c1 | inactive
61 | CC1CCC(N2CCN(C(=O)c3ccccc3F)CC2)CC1 (stereo unspecified) | inactive
62 | COc1ccc(NC(=O)CSCC(=O)N2CCCc3ccccc32)cc1 | inconclusive: 20.6 µM [activator, single point]
63 | COc1ccccc1N1CCN(c2nc3ccccn3c(=O)c2C=O)CC1 | inconclusive: 6.51 µM [activator, full curve, poor fit]
64 | Cc1cccc(C(=O)Nc2sc(C)c(-c3ccccc3)c2C#N)c1 | inconclusive: 2.31 µM [activator, partial curve]
65 | COc1ccc(NC(=O)NC2CCCCCCC2)cc1 | active: 9.2 µM
66 | Cc1ccc(/C=N/NC(=O)c2ccoc2C)s1 | inconclusive: 16.4 µM [activator, partial curve]
67 | COc1ccc2nc(NC(=O)c3ccccc3C(=O)O)sc2c1 | inactive
68 | O=C(Nc1ccnn1C1CCN(Cc2ccccc2OC(F)F)CC1)c1cccnc1 | inactive
69 | CCCc1cc(=O)[nH]c(SCC(=O)Nc2nc3ccc(OCC)cc3s2)n1 | inactive
70 | O=C(Nc1nnc(SCc2ccccc2)s1)C1=COCCO1 | inconclusive: 11.6 µM [activator, partial curve, poor fit]
71 | C=CCN(c1ccccc1)S(=O)(=O)c1cccc(C(=O)NCC(c2ccc(F)cc2)N2CCOCC2)c1 (stereo unspecified) | inconclusive: 25.9 µM [activator, single point]
